From US20250361279A1 (Hoffmann-La Roche, published 2025)

T1: IL-7 receptor (IL-7R alpha chain and common gamma chain) on human T cells (human, UniProt P16871 21-459; P31785 23-369)
T1 sequence (looked up) 1: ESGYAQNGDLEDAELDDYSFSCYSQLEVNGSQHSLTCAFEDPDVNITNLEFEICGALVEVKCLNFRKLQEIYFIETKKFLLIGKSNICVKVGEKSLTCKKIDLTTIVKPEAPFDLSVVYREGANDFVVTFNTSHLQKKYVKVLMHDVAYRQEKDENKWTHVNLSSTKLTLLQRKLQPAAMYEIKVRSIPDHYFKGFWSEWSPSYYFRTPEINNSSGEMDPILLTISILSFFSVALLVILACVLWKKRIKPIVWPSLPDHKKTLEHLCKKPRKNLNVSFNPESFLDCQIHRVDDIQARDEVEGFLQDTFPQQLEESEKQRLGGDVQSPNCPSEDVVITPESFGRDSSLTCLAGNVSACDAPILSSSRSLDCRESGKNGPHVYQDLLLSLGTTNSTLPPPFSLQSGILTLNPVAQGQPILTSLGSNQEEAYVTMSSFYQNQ
T1 sequence (looked up) 2: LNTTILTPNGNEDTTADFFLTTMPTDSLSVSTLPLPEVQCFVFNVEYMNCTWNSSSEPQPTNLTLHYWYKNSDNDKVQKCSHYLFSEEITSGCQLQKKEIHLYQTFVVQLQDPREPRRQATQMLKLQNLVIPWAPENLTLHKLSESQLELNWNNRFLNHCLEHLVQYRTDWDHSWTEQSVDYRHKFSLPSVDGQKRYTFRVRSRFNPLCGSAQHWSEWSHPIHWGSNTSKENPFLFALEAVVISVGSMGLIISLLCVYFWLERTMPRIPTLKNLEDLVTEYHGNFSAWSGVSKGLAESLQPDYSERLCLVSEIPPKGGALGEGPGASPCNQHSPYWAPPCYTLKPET

B1: P1AG3727 (PD1-IL7var18_21, partially glycosylated; IL7 K81E, G85E, T93A, S118A; (G4S)2G4 linker) (other)
light: DIVMTQSPDSLAVSLGERATINCKASESVDTSDNSFIHWYQQKPGQSPKLLIYRSSTLESGVPDRFSGSGSGTDFTLTISSLQAEDVAVYYCQQNYDVPWTFGQGTKVEIKRTVAAPSVFIFPPSDEQLKSGTASVVCLLNNFYPREAKVQWKVDNALQSGNSQESVTEQDSKDSTYSLSSTLTLSKADYEKHKVYACEVTHQGLSSPVTKSFNRGEC
heavy 1: EVQLLESGGGLVQPGGSLRLSCAASGFSFSSYTMSWVRQAPGKGLEWVATISGGGRDIYYPDSVKGRFTISRDNSKNTLYLQMNSLRAEDTAVYYCVLLTGRVYFALDSWGQGTLVTVSSASTKGPSVFPLAPSSKSTSGGTAALGCLVKDYFPEPVTVSWNSGALTSGVHTFPAVLQSSGLYSLSSVVTVPSSSLGTQTYICNVNHKPSNTKVDKKVEPKSCDKTHTCPPCPAPEAAGGPSVFLFPPKPKDTLMISRTPEVTCVVVDVSHEDPEVKFNWYVDGVEVHNAKTKPREEQYNSTYRVVSVLTVLHQDWLNGKEYKCKVSNKALGAPIEKTISKAKGQPREPQVCTLPPSRDELTKNQVSLSCAVKGFYPSDIAVEWESNGQPENNYKTTPPVLDSDGSFFLVSKLTVDKSRWQQGNVFSCSVMHEALHNHYTQKSLSLSPG
heavy 2: EVQLLESGGGLVQPGGSLRLSCAASGFSFSSYTMSWVRQAPGKGLEWVATISGGGRDIYYPDSVKGRFTISRDNSKNTLYLQMNSLRAEDTAVYYCVLLTGRVYFALDSWGQGTLVTVSSASTKGPSVFPLAPSSKSTSGGTAALGCLVKDYFPEPVTVSWNSGALTSGVHTFPAVLQSSGLYSLSSVVTVPSSSLGTQTYICNVNHKPSNTKVDKKV[sequence of human IgG1 Fc with changes omitted]GGGGSGGGGSGGGGDCDIEGKDGKQYESVLMVSIDQLLDSMKEIGSNCLNNEFNFFKRHICDANKEGMFLFRAARKLRQFLKMNSTGDFDLHLLEVSEETTILLNCAGQVKGRKPAALGEAQPTKSLEENKALKEQKKLNDLCFLKRLLQEIKTCWNKILMGTKEH
B2: P1AG3048 (PD1-IL7var18_21, fully glycosylated; IL7 K81E, G85E; (G4S)2G4 linker) (other)
light: B1 light
heavy 1: B1 heavy 1
heavy 2: EVQLLESGGGLVQPGGSLRLSCAASGFSFSSYTMSWVRQAPGKGLEWVATISGGGRDIYYPDSVKGRFTISRDNSKNTLYLQMNSLRAEDTAVYYCVLLTGRVYFALDSWGQGTLVTVSSASTKGPSVFPLAPSSKSTSGGTAALGCLVKDYFPEPVTVSWNSGALTSGVHTFPAVLQSSGLYSLSSVVTVPSSSLGTQTYICNVNHKPSNTKVDKKV[sequence of human IgG1 Fc with changes omitted]GGGGSGGGGSGGGGDCDIEGKDGKQYESVLMVSIDQLLDSMKEIGSNCLNNEFNFFKRHICDANKEGMFLFRAARKLRQFLKMNSTGDFDLHLLEVSEETTILLNCTGQVKGRKPAALGEAQPTKSLEENKSLKEQKKLNDLCFLKRLLQEIKTCWNKILMGTKEH
B3: P1AH6003 (new PD1-IL7v, fully glycosylated; IL7 V15A, G85K; (G2SG2)3 linker) (other)
light: B1 light
heavy 1: B1 heavy 1
heavy 2: EVQLLESGGGLVQPGGSLRLSCAASGFSFSSYTMSWVRQAPGKGLEWVATISGGGRDIYYPDSVKGRFTISRDNSKNTLYLQMNSLRAEDTAVYYCVLLTGRVYFALDSWGQGTLVTVSSASTKGPSVFPLAPSSKSTSGGTAALGCLVKDYFPEPVTVSWNSGALTSGVHTFPAVLQSSGLYSLSSVVTVPSSSLGTQTYICNVNHKPSNTKVDKKV[sequence of human IgG1 Fc with changes omitted]GGSGGGGSGGGGSGGDCDIEGKDGKQYESALMVSIDQLLDSMKEIGSNCLNNEFNFFKRHICDANKEGMFLFRAARKLRQFLKMNSTGDFDLHLLKVSEKTTILLNCTGQVKGRKPAALGEAQPTKSLEENKSLKEQKKLNDLCFLKRLLQEIKTCWNKILMGTKEH
B4: P1AH6020 (new PD1-IL7v, fully glycosylated; IL7 K81Q, G85Q; (G2SG2)3 linker) (other)
light: B1 light
heavy 1: B1 heavy 1
heavy 2: EVQLLESGGGLVQPGGSLRLSCAASGFSFSSYTMSWVRQAPGKGLEWVATISGGGRDIYYPDSVKGRFTISRDNSKNTLYLQMNSLRAEDTAVYYCVLLTGRVYFALDSWGQGTLVTVSSASTKGPSVFPLAPSSKSTSGGTAALGCLVKDYFPEPVTVSWNSGALTSGVHTFPAVLQSSGLYSLSSVVTVPSSSLGTQTYICNVNHKPSNTKVDKKV[sequence of human IgG1 Fc with changes omitted]GGSGGGGSGGGGSGGDCDIEGKDGKQYESVLMVSIDQLLDSMKEIGSNCLNNEFNFFKRHICDANKEGMFLFRAARKLRQFLKMNSTGDFDLHLLQVSEQTTILLNCTGQVKGRKPAALGEAQPTKSLEENKSLKEQKKLNDLCFLKRLLQEIKTCWNKILMGTKEH
B5: P1AG0950 (PD1-IL7var18_21, fully glycosylated; IL7 K81E, G85E; 3G4S linker) (other)
light: B1 light
heavy 1: B1 heavy 1
heavy 2: EVQLLESGGGLVQPGGSLRLSCAASGFSFSSYTMSWVRQAPGKGLEWVATISGGGRDIYYPDSVKGRFTISRDNSKNTLYLQMNSLRAEDTAVYYCVLLTGRVYFALDSWGQGTLVTVSSASTKGPSVFPLAPSSKSTSGGTAALGCLVKDYFPEPVTVSWNSGALTSGVHTFPAVLQSSGLYSLSSVVTVPSSSLGTQTYICNVNHKPSNTKVDKKV[sequence of human IgG1 Fc with changes omitted]GGGGSGGGGSGGGGSDCDIEGKDGKQYESVLMVSIDQLLDSMKEIGSNCLNNEFNFFKRHICDANKEGMFLFRAARKLRQFLKMNSTGDFDLHLLEVSEETTILLNCTGQVKGRKPAALGEAQPTKSLEENKSLKEQKKLNDLCFLKRLLQEIKTCWNKILMGTKEH

target: T2, human PD-1 on activated CD4 T cells (human, UniProt Q15116 25-288); test: cell-based or functional assay

Going from B1 to B2, the “Cis-delivery: fold increase in EC50, EC50 [with PD1bl]/EC50 [no PD1bl]” value (“Cis-delivery: fold increase in EC50 … [no PD1bl]” below) rises from 3.8 fold to 12.4 fold.

In the case of B3, the “Cis-delivery: fold increase in EC50 … [no PD1bl]” value is reported as 4.1 fold.

First: B1
Second: B2
The “Delta AUC (PD1+ vs PD1bl.)” value of the first is higher: 7.4 for the first, 7 for the second.

With B3 the “Delta AUC (PD1+ vs PD1bl.)” value was 12.4.

target: T1, IL-7 receptor (IL-7R alpha chain and …); test: cell-based or functional assay

First: B1
Second: B2
The “Potency reduction to PD1-IL7wt: EC50 (PD1+)/EC50 (PD1-IL7wt)” value (“Potency reduction to PD1-IL7wt: EC50” for short) of the first is lower: 795 fold for the first, 874 fold for the second.

With B3 the “Potency reduction to PD1-IL7wt: EC50” value was 140 fold.

Going from B1 to B2, the “STAT-5P AUC, PD1+ CD4 T cells” value falls from 15.3 to 13.1.

B3 was tested, and the “STAT-5P AUC, PD1+ CD4 T cells” value was 16.6.

Going from B1 to B2, the “STAT-5P AUC, PD1-blocked CD4 T cells” value falls from 7.8 to 6.1.

B3 was tested, and the “STAT-5P AUC, PD1-blocked CD4 T cells” value was 4.2.

target: T2, human PD-1 on activated CD4 T cells; test: cell-based or functional assay; remark: another data set of the same source

First: B1
Second: B4
The “Cis-delivery: fold increase in EC50 … [no PD1bl]” value of the first is lower: 2 fold for the first, 5.1 fold for the second.

First: B5
Second: B2
The “Cis-delivery: fold increase in EC50 … [no PD1bl]” value of the first is higher: 0.2 fold for the first, 0.001 fold for the second.

Going from B1 to B4, the “Delta AUC (PD1+ vs PD1bl.)” value rises from 6.9 to 42.4.

Going from B5 to B2, the “Delta AUC (PD1+ vs PD1bl.)” value falls from 11.7 to 7.

target: T1, IL-7 receptor (IL-7R alpha chain and …); test: cell-based or functional assay; remark: another data set of the same source

Going from B1 to B4, the “Potency reduction to PD1-IL7wt: EC50” value falls from 625 fold to 5.7 fold.

First: B5
Second: B2
The “Potency reduction to PD1-IL7wt: EC50” value of the first is lower: 4.1 fold for the first, 299 fold for the second.

First: B1
Second: B4
The “STAT-5P AUC, PD1+ CD4 T cells” value of the first is lower: 22 for the first, 118 for the second.

Going from B5 to B2, the “STAT-5P AUC, PD1+ CD4 T cells” value falls from 19.5 to 19.2.

Compared with B1, B4 is higher in “STAT-5P AUC, PD1-blocked CD4 T cells” value: 15.1 for the first, 75.8 for the second.

First: B5
Second: B2
The “STAT-5P AUC, PD1-blocked CD4 T cells” value of the first is lower: 7.8 for the first, 12.3 for the second.
